Measured values reported in PMC12820563.
Some of the results follow. The list includes weakly bound sequences.

Target: T1, MBP-FoxP3dN (UniProt Q99JB6)
T1 sequence: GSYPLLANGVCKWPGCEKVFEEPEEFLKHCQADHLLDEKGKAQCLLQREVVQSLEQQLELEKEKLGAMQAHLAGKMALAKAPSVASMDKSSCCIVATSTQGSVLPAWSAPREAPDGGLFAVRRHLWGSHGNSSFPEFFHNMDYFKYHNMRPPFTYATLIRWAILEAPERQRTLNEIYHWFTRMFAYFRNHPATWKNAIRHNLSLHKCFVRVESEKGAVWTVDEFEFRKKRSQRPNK
Experiment: PD-seq (MBP pull-down with sequencing)
Details: 20 mM Tris-HCl pH 7.5, 100 mM NaCl, 1.5 mM MgCl2, 0.4 uM protein, 0.1 uM dsDNA library, 30 min, room temperature, amylose pull-down; high values mean tight binding; double strand, one strand shown

Row | Sequence | binding signal (RPM ratio (pull-down/input))
1 | GATGATTGTTCTCCCAGCTGATGAATTTCTGGTGTCGAGTAAACAAATTTTCCTAATCTTTCTGTTCAAGCGCCATCTAC | 0.353
2 | GATGATTGTTCTCCCAGCTGATGAATTGAGACCATCGAGTAAACAAATTTTCCTAATCTTTCTGTTCAAGCGCCATCTAC | 0.502
3 | GATGATTGTTCTCCCAGCTGATGAATTTGTGAAGTCGAGTAAACAAATTTTCCTAATCTTTCTGTTCAAGCGCCATCTAC | 0.543
4 | GATGATTGTTCTCCCAGCTGATGAATTTTGCGTTTCGAGTAAACAAATTTTCCTAATCTTTCTGTTCAAGCGCCATCTAC | 4.87
5 | GATGATTGTTCTCCCAGCTGATGAATTCCTTAAGTCGAGTAAACAAATTTTCCTAATCTTTCTGTTCAAGCGCCATCTAC | 0.171
6 | GATGATTGTTCTCCCAGCTGATGAATTTACAGTATCGAGTAAACAAATTTTCCTAATCTTTCTGTTCAAGCGCCATCTAC | 0.933
7 | GATGATTGTTCTCCCAGCTGATGAATTCTCTCTCTCGAGTAAACAAATTTTCCTAATCTTTCTGTTCAAGCGCCATCTAC | 0.214
8 | GATGATTGTTCTCCCAGCTGATGAATTACGGACTTCGAGTAAACAAATTTTCCTAATCTTTCTGTTCAAGCGCCATCTAC | 0.479
9 | GATGATTGTTCTCCCAGCTGATGAATTTTGTCAGTCGAGTAAACAAATTTTCCTAATCTTTCTGTTCAAGCGCCATCTAC | 1.24
10 | GATGATTGTTCTCCCAGCTGATGAATTACCTGCCTCGAGTAAACAAATTTTCCTAATCTTTCTGTTCAAGCGCCATCTAC | 0.476
11 | GATGATTGTTCTCCCAGCTGATGAATTGACCCATTCGAGTAAACAAATTTTCCTAATCTTTCTGTTCAAGCGCCATCTAC | 0.395
12 | GATGATTGTTCTCCCAGCTGATGAATTGGAGACATCGAGTAAACAAATTTTCCTAATCTTTCTGTTCAAGCGCCATCTAC | 0.404
13 | GATGATTGTTCTCCCAGCTGATGAATTAACTAATTCGAGTAAACAAATTTTCCTAATCTTTCTGTTCAAGCGCCATCTAC | 0.313
14 | GATGATTGTTCTCCCAGCTGATGAATTCTGGCTCTCGAGTAAACAAATTTTCCTAATCTTTCTGTTCAAGCGCCATCTAC | 0.376
15 | GATGATTGTTCTCCCAGCTGATGAATTTATTAGGTCGAGTAAACAAATTTTCCTAATCTTTCTGTTCAAGCGCCATCTAC | 3.09
16 | GATGATTGTTCTCCCAGCTGATGAATTTGTCCAGTCGAGTAAACAAATTTTCCTAATCTTTCTGTTCAAGCGCCATCTAC | 1.11
17 | GATGATTGTTCTCCCAGCTGATGAATTGAGGCGCTCGAGTAAACAAATTTTCCTAATCTTTCTGTTCAAGCGCCATCTAC | 1.4
18 | GATGATTGTTCTCCCAGCTGATGAATTCATTTCGTCGAGTAAACAAATTTTCCTAATCTTTCTGTTCAAGCGCCATCTAC | 0.76
19 | GATGATTGTTCTCCCAGCTGATGAATTCGGGGGTTCGAGTAAACAAATTTTCCTAATCTTTCTGTTCAAGCGCCATCTAC | 0.512
20 | GATGATTGTTCTCCCAGCTGATGAATTCTGCTAGTCGAGTAAACAAATTTTCCTAATCTTTCTGTTCAAGCGCCATCTAC | 1.96
21 | GATGATTGTTCTCCCAGCTGATGAATTATGTGTGTCGAGTAAACAAATTTTCCTAATCTTTCTGTTCAAGCGCCATCTAC | 4.56

Row | Sequence | binding signal (RPM ratio (pull-down/input))
22 | GATGATTGTTCTCCCAGCTGATGAATTTTACCTCTCGAGTAAACAAATTTTCCTAATCTTTCTGTTCAAGCGCCATCTAC | 0.398
23 | GATGATTGTTCTCCCAGCTGATGAATTGCGTGGGTCGAGTAAACAAATTTTCCTAATCTTTCTGTTCAAGCGCCATCTAC | 1.6
24 | GATGATTGTTCTCCCAGCTGATGAATTGGATGACTCGAGTAAACAAATTTTCCTAATCTTTCTGTTCAAGCGCCATCTAC | 0.768
25 | GATGATTGTTCTCCCAGCTGATGAATTCGGGCTTTCGAGTAAACAAATTTTCCTAATCTTTCTGTTCAAGCGCCATCTAC | 0.755
26 | GATGATTGTTCTCCCAGCTGATGAATTTATCCTGTCGAGTAAACAAATTTTCCTAATCTTTCTGTTCAAGCGCCATCTAC | 0.868
27 | GATGATTGTTCTCCCAGCTGATGAATTAAAGATTTCGAGTAAACAAATTTTCCTAATCTTTCTGTTCAAGCGCCATCTAC | 0.287
28 | GATGATTGTTCTCCCAGCTGATGAATTTGCATACTCGAGTAAACAAATTTTCCTAATCTTTCTGTTCAAGCGCCATCTAC | 3.73
29 | GATGATTGTTCTCCCAGCTGATGAATTAGGCGGGTCGAGTAAACAAATTTTCCTAATCTTTCTGTTCAAGCGCCATCTAC | 0.629
30 | GATGATTGTTCTCCCAGCTGATGAATTTTATGTATCGAGTAAACAAATTTTCCTAATCTTTCTGTTCAAGCGCCATCTAC | 3.53
31 | GATGATTGTTCTCCCAGCTGATGAATTGTTCCTGTCGAGTAAACAAATTTTCCTAATCTTTCTGTTCAAGCGCCATCTAC | 0.351
32 | GATGATTGTTCTCCCAGCTGATGAATTGAAAGCTTCGAGTAAACAAATTTTCCTAATCTTTCTGTTCAAGCGCCATCTAC | 0.298
33 | GATGATTGTTCTCCCAGCTGATGAATTCGAGAGATCGAGTAAACAAATTTTCCTAATCTTTCTGTTCAAGCGCCATCTAC | 0.216
34 | GATGATTGTTCTCCCAGCTGATGAATTTCGACTTTCGAGTAAACAAATTTTCCTAATCTTTCTGTTCAAGCGCCATCTAC | 1.42
35 | GATGATTGTTCTCCCAGCTGATGAATTCTGATCATCGAGTAAACAAATTTTCCTAATCTTTCTGTTCAAGCGCCATCTAC | 0.437
36 | GATGATTGTTCTCCCAGCTGATGAATTTCAATTGTCGAGTAAACAAATTTTCCTAATCTTTCTGTTCAAGCGCCATCTAC | 1.36
37 | GATGATTGTTCTCCCAGCTGATGAATTATAGCCTTCGAGTAAACAAATTTTCCTAATCTTTCTGTTCAAGCGCCATCTAC | 2.08
38 | GATGATTGTTCTCCCAGCTGATGAATTGATCAGATCGAGTAAACAAATTTTCCTAATCTTTCTGTTCAAGCGCCATCTAC | 0.224
39 | GATGATTGTTCTCCCAGCTGATGAATTCTGTATGTCGAGTAAACAAATTTTCCTAATCTTTCTGTTCAAGCGCCATCTAC | 4.95
40 | GATGATTGTTCTCCCAGCTGATGAATTTGCGAATTCGAGTAAACAAATTTTCCTAATCTTTCTGTTCAAGCGCCATCTAC | 1.18
41 | GATGATTGTTCTCCCAGCTGATGAATTTAATTCGTCGAGTAAACAAATTTTCCTAATCTTTCTGTTCAAGCGCCATCTAC | 0.849
42 | GATGATTGTTCTCCCAGCTGATGAATTAGTCCTGTCGAGTAAACAAATTTTCCTAATCTTTCTGTTCAAGCGCCATCTAC | 0.536

Row | Sequence | binding signal (RPM ratio (pull-down/input))
43 | GATGATTGTTCTCCCAGCTGATGAATTACTACTGTCGAGTAAACAAATTTTCCTAATCTTTCTGTTCAAGCGCCATCTAC | 0.433
44 | GATGATTGTTCTCCCAGCTGATGAATTGTTTATATCGAGTAAACAAATTTTCCTAATCTTTCTGTTCAAGCGCCATCTAC | 5.7
45 | GATGATTGTTCTCCCAGCTGATGAATTATATGGATCGAGTAAACAAATTTTCCTAATCTTTCTGTTCAAGCGCCATCTAC | 0.524
46 | GATGATTGTTCTCCCAGCTGATGAATTGTGAACATCGAGTAAACAAATTTTCCTAATCTTTCTGTTCAAGCGCCATCTAC | 0.86
47 | GATGATTGTTCTCCCAGCTGATGAATTTGGTGTCTCGAGTAAACAAATTTTCCTAATCTTTCTGTTCAAGCGCCATCTAC | 3.42
48 | GATGATTGTTCTCCCAGCTGATGAATTTCGGTGATCGAGTAAACAAATTTTCCTAATCTTTCTGTTCAAGCGCCATCTAC | 0.581
49 | GATGATTGTTCTCCCAGCTGATGAATTGGTAGTTTCGAGTAAACAAATTTTCCTAATCTTTCTGTTCAAGCGCCATCTAC | 1.21
50 | GATGATTGTTCTCCCAGCTGATGAATTGCTCCAATCGAGTAAACAAATTTTCCTAATCTTTCTGTTCAAGCGCCATCTAC | 0.467
51 | GATGATTGTTCTCCCAGCTGATGAATTGGAACCCTCGAGTAAACAAATTTTCCTAATCTTTCTGTTCAAGCGCCATCTAC | 0.211
52 | GATGATTGTTCTCCCAGCTGATGAATTCAGCCTTTCGAGTAAACAAATTTTCCTAATCTTTCTGTTCAAGCGCCATCTAC | 4.58
53 | GATGATTGTTCTCCCAGCTGATGAATTCGTCTTTTCGAGTAAACAAATTTTCCTAATCTTTCTGTTCAAGCGCCATCTAC | 0.481
54 | GATGATTGTTCTCCCAGCTGATGAATTATATTGTTCGAGTAAACAAATTTTCCTAATCTTTCTGTTCAAGCGCCATCTAC | 5.32
55 | GATGATTGTTCTCCCAGCTGATGAATTGATAAATTCGAGTAAACAAATTTTCCTAATCTTTCTGTTCAAGCGCCATCTAC | 0.383
56 | GATGATTGTTCTCCCAGCTGATGAATTTTCCCAGTCGAGTAAACAAATTTTCCTAATCTTTCTGTTCAAGCGCCATCTAC | 0.176
57 | GATGATTGTTCTCCCAGCTGATGAATTTGGCAGATCGAGTAAACAAATTTTCCTAATCTTTCTGTTCAAGCGCCATCTAC | 0.404
58 | GATGATTGTTCTCCCAGCTGATGAATTCTTCATATCGAGTAAACAAATTTTCCTAATCTTTCTGTTCAAGCGCCATCTAC | 0.332
59 | GATGATTGTTCTCCCAGCTGATGAATTTTCTGGTTCGAGTAAACAAATTTTCCTAATCTTTCTGTTCAAGCGCCATCTAC | 0.267
60 | GATGATTGTTCTCCCAGCTGATGAATTACGGCCCTCGAGTAAACAAATTTTCCTAATCTTTCTGTTCAAGCGCCATCTAC | 0.475
61 | GATGATTGTTCTCCCAGCTGATGAATTCCTGACCTCGAGTAAACAAATTTTCCTAATCTTTCTGTTCAAGCGCCATCTAC | 0.191
62 | GATGATTGTTCTCCCAGCTGATGAATTGATAGAATCGAGTAAACAAATTTTCCTAATCTTTCTGTTCAAGCGCCATCTAC | 0.321
63 | GATGATTGTTCTCCCAGCTGATGAATTGCCTGCCTCGAGTAAACAAATTTTCCTAATCTTTCTGTTCAAGCGCCATCTAC | 0.923
